Source: PubChem BioAssay AID1508623 (National Center for Advancing Translational Sciences (NCATS), 2021)
Among all 48,000 compounds or so, about 450 (0.94%) were called active. Roughly 19% stayed inconclusive and do not appear here. Calls come from the whole dose curve; as a rule, active = well fitted inhibition curve with a large enough effect; inconclusive = small, poorly fitted or top-dose-only effect; inactive = no such curve, though single readings can be large or run the other way. This is one part of the list.

Test: Primary qHTS for Identification of Small Molecule Inhibitors of Huntingtin Promoter Activity; note: nearly all actives have a fitted effect of over 50% in size
Settings: HEK293 HTT promoter firefly luciferase reporter (activity 0% = vehicle and -100% = no light), 24 h; series mostly up to 57.5 µM; activity change, negative = inhibition: at the top concentration
Procedure, shortened: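 HEK293 luciferase promoter-reporter cells (2,500/well) plated 24 h, then compounds added at up to 57.5 uM final for 24 h at 37 °C. Firefly luminescence by Dual-Glo, normalized to vehicle (0%) and zero RLU (-100%).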

Activity change, negative = inhibition, inactive:
CCNc1c(NC(=O)c2cc(OCC)c(OCC)c(OCC)c2)c(=O)oc2ccccc12 -14.9%
CC(NC(=O)C(=O)Nc1c2c(nn1-c1ccc(F)cc1)CSC2)c1ccccc1 (configuration not stated) -15.9%
COc1cccc(CNC(=O)CCn2cccn2)c1 1.96%
CCCCC/C=C\C/C=C\CCCCCCCC(=O)NC(C)c1ccccc1 (configuration not stated) -17.4%
CCOC(=O)c1c(NC(=O)COc2ccc(F)cc2)sc2c1CCC(C)C2 (configuration not stated) -26.6% [at 11.5 µM]
N#C/C(=C\c1ccc(-c2cc(Cl)ccc2Cl)o1)C(=O)Nc1ccccc1C(=O)O 16.1%
CC(C)(C)C(=O)Nc1cccc(C(=O)OCc2cc(=O)n3nc(C4CCCCC4)sc3n2)c1 -5.92%
O=C(CSc1nc2ccccc2n1Cc1ccccc1Cl)NCc1ccccc1 -35.8%
CCOC(=O)c1[nH]cnc1C(=O)Nc1ccc(F)cc1 -10.5%
CCCCN(C)CCNC(=O)c1nn(-c2ccc(OC)cc2)c(=O)c2c1c1ccccc1n2C -11.1%
COc1cccc(CNC(=O)CCNS(=O)(=O)c2ccc3c(c2)oc(=O)n3C)c1 -7.03%
Cc1cc(C)c(Cn2c(C(O)c3ccccc3)nc3ccccc32)c(C)c1 (configuration not stated) -20.7%
CCN(Cc1ccccc1)C(=O)CN1C(=O)COc2ccc(S(=O)(=O)N3CCCCCC3)cc21 -17.3%
CCn1cc2nc(SCc3ccccc3F)n(Cc3ccc(C)cc3)c(=O)c2n1 -29.3%
Cc1ccc(NC(=O)CCS(=O)(=O)c2cccc3nsnc23)c(C)c1 -8.6%
CCOc1ccc(NC(=O)CCS(=O)(=O)c2ccc3c(c2)n(C)c(=O)c(=O)n3C)cc1 -18.4%
Cc1ccc2cccc(NC(=O)C(C)(C)Oc3ccc(Br)cc3)c2n1 -7.75%
CCOc1ccc(NC(=O)CSc2nc(-c3ccc(F)cc3)cc(C(F)(F)F)c2C#N)cc1 -1.93%
CCOC(=O)c1ccccc1NC(=O)Cn1c2ncccc2c(=O)n1-c1ccccc1 -7.48%
Cc1ccc(C)c(N2CCN(Cc3nnc(-c4ccccc4)o3)CC2)c1 -24.5%
COc1cccc(C(=O)c2cn(CC(=O)Nc3cccc(C)c3C)c3nc(C)ccc3c2=O)c1 0.276%
CCOCCCn1c(SCC(=O)Nc2ccc(OC)cc2OC)nc2ccccc2c1=O -17.5%
COc1ccc(-c2cn3c(n2)sc2cc(C(=O)Nc4cc(Cl)ccc4C)ccc23)cc1 36.8%
CCc1ccc(C(=O)Nc2ccc3nn(-c4ccc(C)c(Cl)c4)nc3c2)cc1 23.4%
Cc1cccc(C)c1NC(=O)Cn1nc(C)c2sc3ccccc3c2c1=O -22.1%
Cc1ccc(CN2CCc3nc(SCC(=O)Nc4cccc(C)c4C)[nH]c(=O)c3C2)cc1 -16.5%
COc1ccc(N2CC(NC(=O)c3ccc(S(=O)(=O)N4CCCCC4)cc3)CC2=O)cc1OC (configuration not stated) -32.8%
COc1cc(OC)cc(-c2nc3nc(C)c(CCC(=O)Nc4cc(F)ccc4F)c(C)n3n2)c1 -16.2%
CCSc1ncc(Cl)c(C(=O)Nc2c(C(=O)c3ccccc3)oc3ccccc23)n1 -12.7%
Cc1ccccc1CN1CCN(CC(=O)NCc2ccccc2Cl)C1=O -6.37%
COc1ccc2oc(-c3ccc(C)c(NC(=O)Cc4ccc(Cl)cc4)c3)nc2c1 -3.19%
Cc1c(NC(=O)c2cc(=O)c3cc(Cl)ccc3o2)c(=O)n(-c2ccccc2)n1C 1.91% [at 11.5 µM]
Fc1ccc2c(c1)NC(c1ccncc1)=NC(c1cccs1)=N2 -0.401%
CCC(=O)Nc1nnc(S(=O)(=O)N2CCc3ccccc32)s1 -18.8%
CCOC(=O)c1ccc(NC(=O)C2CCN(S(=O)(=O)c3ccc(C)cc3)CC2)cc1 -22.9%
CC(=O)c1nn(-c2ccc(OC(F)(F)F)cc2)nc1Nc1ccc(C)cc1 -7.18%
COc1ccccc1CNC(=O)CS(=O)Cc1nc(-c2ccc(OC)c(OC)c2)oc1C (configuration not stated) -3.86%
CCC1CN(C(=O)N2CCC(C(=O)O)CC2)c2cc(C)ccc2O1 (configuration not stated) -12.5%
Cc1ccc(CCNC(=O)c2ccc(CSCc3ccccc3C)o2)cc1 -1.01%
Cc1ccc2nc(-c3ccc(NC(=O)COc4ccc(Cl)c(C)c4)cc3)sc2c1 58.5%
COc1ccc(Nc2cc(C)c3cc(NC(=O)Cc4c(F)cccc4Cl)ccc3n2)cc1 -26.6%
COc1ccccc1CNC(=O)c1sc2nc3n(c(=O)c2c1C)CCC3 12.8%
CCOc1ccc(CNS(=O)(=O)c2ccc(-c3cc(C(F)(F)F)on3)s2)cc1 -11.5%
CCCNc1ccc(-c2nc(-c3ccncc3)no2)cc1[N+](=O)[O-] -6.94%
CCOc1ccc(-c2cc(C(=O)NCc3ccc(C)cc3)c3ccccc3n2)cc1 -8.39%
CCOc1ccc(Cl)cc1C1CC(=O)Nc2cc(OC)c(OC)c(OC)c21 (configuration not stated) 0.243%
NC(=O)C(c1ccccc1)(c1ccccc1)[C@@H]1CCN(CCc2ccc3c(c2)CCO3)C1 -1.14%
CCOC(=O)C1CCCN(C(=O)Cn2ncc3c([nH]c4ccc(C)cc43)c2=O)C1 (configuration not stated) -3.3%
CCCC(CCC)C(=O)Nc1cccc(-c2cn3cccnc3n2)c1 -5.4%
COC(=O)c1c(NC(=O)CCCOc2ccccc2C)sc2c1CCC(C)C2 (configuration not stated) 1.44%
COc1ccccc1CNC(=O)CN1C(=O)CCc2cc(S(=O)(=O)N3CCOCC3)ccc21 -14.4%
CCc1ccc(NC(=O)CCCc2nc(-c3ccco3)no2)cc1 -13%
COc1cc2[nH]c(=O)n(CCCC(=O)NCc3ccccc3)c(=O)c2cc1OC -6.38%
CC1CN(C(=O)N2CCC(C(=O)NCc3ccco3)CC2)c2cc(Cl)ccc2O1 (configuration not stated) -15.5%
COc1ccc(NC(=O)c2cc(-c3ccccc3O)no2)cc1 4.16%
CCOC(=O)c1cccc(N)c1 1.09%
COc1ccc(-c2noc(CSc3nnc(-c4ccc(Cl)cc4)n3C)n2)cc1OC -13%
COc1ccc(CCNC(=O)Cn2cc(S(=O)(=O)Cc3cccc(Cl)c3)c3ccccc32)cc1OC -24.2%
CCc1cnc2c(c1SCC(=O)Nc1cc(Cl)ccc1OC)c(=O)n(C)c(=O)n2C -16.5%
CN1CCN(C(=O)Nc2cccc(Cl)c2)c2cccnc21 9.43%
Cc1ccc(CNC(=O)C2CCCN(S(=O)(=O)c3ccc4c(ccn4C)c3)C2)cc1 (configuration not stated) 15.7%
CCCCN(CCCC)CCNC(=O)c1cc(=O)[nH]c2ccc(S(=O)(=O)N3CCCCCC3)cc12 -21.9%
CC(C)c1ccc(NC(=O)CSc2nc(=O)n(Cc3cccnc3)c3c2CCC3)cc1 -13.5%
Cc1cc(C)c(NC(=O)CSc2ncc(S(=O)(=O)c3ccc(C(C)(C)C)cc3)c(=O)[nH]2)c(C)c1 -11.9%
O=C(NC1CCCC1)c1ccc2c(c1)N(Cc1ccccc1Cl)C(=O)c1ccccc1S2 -4.02%
CCc1ccccc1Nc1nn2c(=O)c3ccc(C(=O)NC4CCCCC4)cc3nc2s1 1.66%
Cc1ccn2c(=O)c(C(=O)NCc3ccccc3Cl)c(O)nc2c1 -4.27%
COc1ccccc1OCC(O)CN1CCN(CC(=O)Nc2c(C)cccc2C)CC1 (configuration not stated)
COC(=O)C(CCSC)NC(=O)c1cc2c(n(-c3ccc(OC)cc3)c1=O)CC(C)(C)CC2=O (configuration not stated) -10.5%
COc1cccc(C(=O)Nc2ccc(NC(=O)c3ccc(C(C)(C)C)cc3)cc2)c1 -13.8%
Cc1ccc(N2CC(NC(=O)C3CCCCC3)CC2=O)cc1C (configuration not stated) -25%
COc1ccc(-c2nc3scc(CCNC(=O)Cc4ccc(F)cc4)n3n2)cc1 -21.9%
CCC(C)NC(=O)c1ccc2nc(Cc3ccccc3)oc2c1 (configuration not stated) 3.8%
CCN(c1ccccc1)S(=O)(=O)c1nnc(NC(=O)c2ccco2)s1 -16.3%
Cc1ccccc1-c1nnc(SCC(=O)N2CCCCC2)o1 48.9%
Cc1ccc(-n2ncc(C(=O)Nc3c(Cl)cccc3Cl)c2C2CCNCC2)cc1 -6.72%
Cc1csc2nc(COc3ccccc3NC(=O)c3ccccc3Cl)cc(=O)n12 -7.83%
Cn1c(=O)cc(OCC(=O)NCc2ccc(F)cc2Cl)c2ccccc21 -18.9%
COc1ccc(CCNC(=O)CCCn2nc(C)c3sc4ccccc4c3c2=O)cc1OC 0.307%
Cc1ccc2nc(-c3ccc(Cl)c(NC(=O)c4ccc(Br)o4)c3)oc2c1 9.43%
O=C(COCc1cc(-c2ccc3c(c2)OCO3)on1)NCc1ccc(F)cc1 -18.7%
Cc1ccc(C)c(N2CCN(S(=O)(=O)c3cc(C(=O)Nc4cc(Cl)cc(Cl)c4)ccc3F)CC2)c1 -16%
Cc1ccc(Cl)cc1NC(=O)c1cc(S(=O)(=O)N2CCCCCC2)cn1C -29.4%
COc1cc(C2CC(=O)Nc3c2c(C)nn3-c2nncc(-c3ccccc3)n2)cc(OC)c1OC (configuration not stated) -10.1%
O=C(Nc1ccccc1Cl)c1cc2c(-c3ccccc3)nn(-c3ccccc3)c2s1 9.04%
CCN(c1ccccc1)c1nnc(NC(=O)Nc2ccc(C)cc2)s1 1.97%
O=C(OCc1cc(=O)n2nc(-c3cccs3)sc2n1)c1ccc(F)cc1 -0.158%
Cc1ccc2nc3c(cc(C#N)c(=O)n3-c3nnc(SCc4ccccc4Cl)s3)c(=O)n2c1 -5.93%
COc1ccc(/C=C/c2nc(C#N)c(N3CCC(C)CC3)o2)cc1OC -21.4%
COc1ccc(Nc2ncc3c(n2)CCN(Cc2ccc(Br)s2)C3)c(OC)c1 17.4%
CSc1ccc(CCNC(=O)c2ccc(-n3c(C)cc4c3CCCC4)cc2)cc1 -12.6%
CC(=O)N1N=C(c2ccc(C)cc2)CC1c1cn(-c2ccccc2)nc1-c1cccs1 (configuration not stated) -9.67%
CCN(CC)S(=O)(=O)c1ccc2c(c1)c(=O)c(C(=O)N1CCN(c3cccc(Cl)c3)CC1)cn2C -4.64%
Cn1c(=O)oc2cc(S(=O)(=O)NC(Cc3ccccc3)C(=O)NCc3ccccc3Cl)ccc21 (configuration not stated) -4.15%
CCOc1ccccc1CNC(=O)C1CCN(c2nc3ccccc3nc2C(F)(F)F)CC1 -12.8%
COc1ccc(-c2n[nH]c3c2cnc2cc(OC)c(OC)cc23)cc1 7.59%
Cc1ccc(CSC2=Nc3ccccc3C3=NC(CC(=O)NCc4ccc5c(c4)OCO5)C(=O)N23)cc1 (configuration not stated) -0.433%
